Measured values: the supplement of paper PMC12217912
Some of the results follow. Sequences were assembled here from the parent chain. Values near 0.05 are background.

B1: TEV protease; numbered along this chain (parent)
chain: MGESLFKGPRDYNPISSSICHLTNESDGHTTSLYGIGFGPFIITNKHLFRRNNGTLVVQSLHGVFKVKDTTTLQQHLVDGRDMIIIRMPKDFPPFPQKLKFREPQREERICLVTTNFQTKSMSSMVSDTSCTFPSGDGIFWKHWIQTKDGQCGSPLVSTRDGFIVGIHSASNFTNTNNYFTSVPKNFMELLTNQEAQQWVSGWRLNADSVLWGGHKVFMVKPEEPFQPVKEATQL

Variants of: B1
Assay: raw area under fraction-flipped curve 0-4 h after induction (AUC4h, not background-subtracted), DNA-recorder readout of cleavage of the substrate (dimensionless); higher = more cleavage of the substrate by the protease variant
Conditions: temperature: 34 °C; time window: 0-4 h after rhamnose induction
Protocol: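 In vivo DNA recorder in E. coli TOP10(DE3) ΔrhaA at 34 °C. Each TEVp single-site mutant (parent TEVp 0) is paired with a single-site variant of the 7-mer TEVs (canonical ENLYFQ|S). The substrate sits between flexible linkers in a Bxb1-sfGFP-TEVs-SsrA fusion, so cleavage stabilises Bxb1 and speeds flipping of a recombination array, read by NGS. The value is the raw area under the fraction-flipped curve over 0-4 h after rhamnose induction (AUC4h), with ≥20 reads per time point. It is not background-subtracted; inactive controls average about 0.047.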
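Note: Bxb1 expression induced with 0.2% (w/v) L-rhamnose at OD600 near 0.5, cultures sampled hourly, flipped fraction per protease–substrate barcode pair counted by paired-end Illumina sequencing.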

Variant	area with substrate ENLYFQA	area with substrate ENLYFQC	area with substrate ENLYFQD	area with substrate ENLYFQE	area with substrate ENLYFQG	area with substrate ENLYFQH	area with substrate ENLYFQI	area with substrate ENLYFQM	area with substrate ENLYFQN	area with substrate ENLYFQP	area with substrate ENLYFQR	area with substrate ENLYFQS	area with substrate ENLYFQV	area with substrate ENLYFQW	area with substrate ENLYFQY	area with substrate ENLYFQK	area with substrate ENLYFQL	area with substrate ENLYFQQ	area with substrate ENLYFQT	area with substrate ENLYFQF
MGESLFKGPRDYNPISSSICHLTNESDGHTTSLYGIGFGPFIITNKHLFRRNNGTLVVQSLHGVFKVKDTTTLQQHLVDGRDMIIIRMPKDFPPFPQKLKFIEPQREERICLVTTNFQTKSMSSMVSDTSCTFPSGDGIFWKHWIQTKDGQCGSPLVSTRDGFIVGIHSASNFTNTNNYFTSVPKNFMELLTNQEAQQWVSGWRLNADSVLWGGHKVFMVKPEEPFQPVKEATQL [R102I]	0.0378	0.0504	0.0408	0.0458	0.0559	0.0462	0.0365	0.0353	0.0534	0.0387	0.0482	0.049	0.0404	0.0551	0.0511	–	–	–	–	–
MGESLFKGPRDYNPISSSICHLTNESDGHTTSLYGIGFGPFIITNKHLFRRNNGTLVVQSLHGVFKVKDTTTLQQHLVDGRDMIIIRMPKDFPPFPQKLKFRECQREERICLVTTNFQTKSMSSMVSDTSCTFPSGDGIFWKHWIQTKDGQCGSPLVSTRDGFIVGIHSASNFTNTNNYFTSVPKNFMELLTNQEAQQWVSGWRLNADSVLWGGHKVFMVKPEEPFQPVKEATQL [P104C]	0.0804	0.101	0.0116	–	0.0759	–	–	0.0658	0.0707	0.0454	0.0584	0.0836	0.0593	0.0328	0.063	0.0835	0.0753	0.0627	0.052	–
MGESLFKGPRDYNPISSSICHLTNESDGHTTSLYGIGFGPFIITNKHLFRRNNGTLVVQSLHGVFKVKDTTTLQQHLVDGRDMIIIRMPKDFPPFPQKLKFREHQREERICLVTTNFQTKSMSSMVSDTSCTFPSGDGIFWKHWIQTKDGQCGSPLVSTRDGFIVGIHSASNFTNTNNYFTSVPKNFMELLTNQEAQQWVSGWRLNADSVLWGGHKVFMVKPEEPFQPVKEATQL [P104H]	0.0405	0.0444	–	–	–	0.0776	0.0504	–	–	0.0547	–	0.0534	–	0.0524	–	0.053	–	–	0.0394	–
MGESLFKGPRDYNPISSSICHLTNESDGHTTSLYGIGFGPFIITNKHLFRRNNGTLVVQSLHGVFKVKDTTTLQQHLVDGRDMIIIRMPKDFPPFPQKLKFRENQREERICLVTTNFQTKSMSSMVSDTSCTFPSGDGIFWKHWIQTKDGQCGSPLVSTRDGFIVGIHSASNFTNTNNYFTSVPKNFMELLTNQEAQQWVSGWRLNADSVLWGGHKVFMVKPEEPFQPVKEATQL [P104N]	0.0538	0.0507	–	–	–	–	–	0.0476	0.0453	–	0.0458	0.0523	0.0518	0.0437	–	–	0.0507	–	0.072	–
MGESLFKGPRDYNPISSSICHLTNESDGHTTSLYGIGFGPFIITNKHLFRRNNGTLVVQSLHGVFKVKDTTTLQQHLVDGRDMIIIRMPKDFPPFPQKLKFRERQREERICLVTTNFQTKSMSSMVSDTSCTFPSGDGIFWKHWIQTKDGQCGSPLVSTRDGFIVGIHSASNFTNTNNYFTSVPKNFMELLTNQEAQQWVSGWRLNADSVLWGGHKVFMVKPEEPFQPVKEATQL [P104R]	0.054	0.0473	0.0571	0.0912	–	–	0.0588	0.0508	–	–	0.0519	0.0539	–	0.0251	0.0457	0.0606	–	0.0944	0.0548	–
MGESLFKGPRDYNPISSSICHLTNESDGHTTSLYGIGFGPFIITNKHLFRRNNGTLVVQSLHGVFKVKDTTTLQQHLVDGRDMIIIRMPKDFPPFPQKLKFRESQREERICLVTTNFQTKSMSSMVSDTSCTFPSGDGIFWKHWIQTKDGQCGSPLVSTRDGFIVGIHSASNFTNTNNYFTSVPKNFMELLTNQEAQQWVSGWRLNADSVLWGGHKVFMVKPEEPFQPVKEATQL [P104S]	0.0596	0.0541	0.054	–	0.0532	–	0.0386	0.054	0.0514	–	0.0489	0.0569	0.0452	0.032	0.052	0.0583	0.0205	–	0.0553	0.0539
MGESLFKGPRDYNPISSSICHLTNESDGHTTSLYGIGFGPFIITNKHLFRRNNGTLVVQSLHGVFKVKDTTTLQQHLVDGRDMIIIRMPKDFPPFPQKLKFREVQREERICLVTTNFQTKSMSSMVSDTSCTFPSGDGIFWKHWIQTKDGQCGSPLVSTRDGFIVGIHSASNFTNTNNYFTSVPKNFMELLTNQEAQQWVSGWRLNADSVLWGGHKVFMVKPEEPFQPVKEATQL [P104V]	0.0938	0.122	0.0449	–	–	–	–	0.0767	0.0689	0.0453	0.0662	0.0955	0.0597	0.0634	0.0735	0.0442	0.0495	–	0.0607	–
MGESLFKGPRDYNPISSSICHLTNESDGHTTSLYGIGFGPFIITNKHLFRRNNGTLVVQSLHGVFKVKDTTTLQQHLVDGRDMIIIRMPKDFPPFPQKLKFREPQGEERICLVTTNFQTKSMSSMVSDTSCTFPSGDGIFWKHWIQTKDGQCGSPLVSTRDGFIVGIHSASNFTNTNNYFTSVPKNFMELLTNQEAQQWVSGWRLNADSVLWGGHKVFMVKPEEPFQPVKEATQL [R106G]	0.131	0.0966	–	–	–	0.0559	0.0587	–	–	–	0.0567	0.0881	–	0.066	–	–	–	–	–	–
MGESLFKGPRDYNPISSSICHLTNESDGHTTSLYGIGFGPFIITNKHLFRRNNGTLVVQSLHGVFKVKDTTTLQQHLVDGRDMIIIRMPKDFPPFPQKLKFREPQKEERICLVTTNFQTKSMSSMVSDTSCTFPSGDGIFWKHWIQTKDGQCGSPLVSTRDGFIVGIHSASNFTNTNNYFTSVPKNFMELLTNQEAQQWVSGWRLNADSVLWGGHKVFMVKPEEPFQPVKEATQL [R106K]	0.0926	0.12	–	–	–	0.0906	–	0.102	0.0853	–	–	0.104	–	0.072	0.101	0.062	0.0767	–	–	–
MGESLFKGPRDYNPISSSICHLTNESDGHTTSLYGIGFGPFIITNKHLFRRNNGTLVVQSLHGVFKVKDTTTLQQHLVDGRDMIIIRMPKDFPPFPQKLKFREPQPEERICLVTTNFQTKSMSSMVSDTSCTFPSGDGIFWKHWIQTKDGQCGSPLVSTRDGFIVGIHSASNFTNTNNYFTSVPKNFMELLTNQEAQQWVSGWRLNADSVLWGGHKVFMVKPEEPFQPVKEATQL [R106P]	0.0999	–	0.0846	–	–	–	0.0588	0.0908	–	–	0.0306	0.106	0.0644	–	–	0.0631	0.0584	–	–	–
MGESLFKGPRDYNPISSSICHLTNESDGHTTSLYGIGFGPFIITNKHLFRRNNGTLVVQSLHGVFKVKDTTTLQQHLVDGRDMIIIRMPKDFPPFPQKLKFREPQQEERICLVTTNFQTKSMSSMVSDTSCTFPSGDGIFWKHWIQTKDGQCGSPLVSTRDGFIVGIHSASNFTNTNNYFTSVPKNFMELLTNQEAQQWVSGWRLNADSVLWGGHKVFMVKPEEPFQPVKEATQL [R106Q]	0.0904	0.164	–	0.0753	0.0843	0.0807	0.0614	0.0819	0.101	0.0561	0.077	0.101	0.0738	0.0631	0.0916	0.0699	0.0593	–	0.0578	0.081
MGESLFKGPRDYNPISSSICHLTNESDGHTTSLYGIGFGPFIITNKHLFRRNNGTLVVQSLHGVFKVKDTTTLQQHLVDGRDMIIIRMPKDFPPFPQKLKFREPQREERVCLVTTNFQTKSMSSMVSDTSCTFPSGDGIFWKHWIQTKDGQCGSPLVSTRDGFIVGIHSASNFTNTNNYFTSVPKNFMELLTNQEAQQWVSGWRLNADSVLWGGHKVFMVKPEEPFQPVKEATQL [I110V]	0.0381	0.123	0.0675	–	0.0859	–	0.0655	0.0939	0.0888	0.0639	0.0644	0.102	0.0637	0.065	0.0833	0.0667	0.0675	0.0752	0.0589	0.0782
MGESLFKGPRDYNPISSSICHLTNESDGHTTSLYGIGFGPFIITNKHLFRRNNGTLVVQSLHGVFKVKDTTTLQQHLVDGRDMIIIRMPKDFPPFPQKLKFREPQREERICAVTTNFQTKSMSSMVSDTSCTFPSGDGIFWKHWIQTKDGQCGSPLVSTRDGFIVGIHSASNFTNTNNYFTSVPKNFMELLTNQEAQQWVSGWRLNADSVLWGGHKVFMVKPEEPFQPVKEATQL [L112A]	0.0797	0.0768	0.0656	–	0.0861	–	0.0547	0.0655	0.0663	0.0653	0.0546	0.083	–	0.0598	0.0497	0.0475	0.0579	–	0.0588	0.0539
MGESLFKGPRDYNPISSSICHLTNESDGHTTSLYGIGFGPFIITNKHLFRRNNGTLVVQSLHGVFKVKDTTTLQQHLVDGRDMIIIRMPKDFPPFPQKLKFREPQREERICDVTTNFQTKSMSSMVSDTSCTFPSGDGIFWKHWIQTKDGQCGSPLVSTRDGFIVGIHSASNFTNTNNYFTSVPKNFMELLTNQEAQQWVSGWRLNADSVLWGGHKVFMVKPEEPFQPVKEATQL [L112D]	0.0615	0.0569	–	–	–	0.0625	0.0528	0.0612	–	0.061	–	0.059	0.0565	0.0457	0.0646	–	–	–	0.0574	–
MGESLFKGPRDYNPISSSICHLTNESDGHTTSLYGIGFGPFIITNKHLFRRNNGTLVVQSLHGVFKVKDTTTLQQHLVDGRDMIIIRMPKDFPPFPQKLKFREPQREERICGVTTNFQTKSMSSMVSDTSCTFPSGDGIFWKHWIQTKDGQCGSPLVSTRDGFIVGIHSASNFTNTNNYFTSVPKNFMELLTNQEAQQWVSGWRLNADSVLWGGHKVFMVKPEEPFQPVKEATQL [L112G]	0.0603	0.0725	–	–	0.059	0.0632	0.0618	0.0645	–	–	0.0578	0.0676	0.0576	–	–	0.0781	0.0532	0.0582	0.0567	–
MGESLFKGPRDYNPISSSICHLTNESDGHTTSLYGIGFGPFIITNKHLFRRNNGTLVVQSLHGVFKVKDTTTLQQHLVDGRDMIIIRMPKDFPPFPQKLKFREPQREERICKVTTNFQTKSMSSMVSDTSCTFPSGDGIFWKHWIQTKDGQCGSPLVSTRDGFIVGIHSASNFTNTNNYFTSVPKNFMELLTNQEAQQWVSGWRLNADSVLWGGHKVFMVKPEEPFQPVKEATQL [L112K]	0.113	0.102	–	–	0.1	0.0921	0.0613	0.087	0.0782	0.055	0.0519	0.0988	0.0658	0.0657	–	0.0518	0.0611	0.0709	0.068	–
MGESLFKGPRDYNPISSSICHLTNESDGHTTSLYGIGFGPFIITNKHLFRRNNGTLVVQSLHGVFKVKDTTTLQQHLVDGRDMIIIRMPKDFPPFPQKLKFREPQREERICMVTTNFQTKSMSSMVSDTSCTFPSGDGIFWKHWIQTKDGQCGSPLVSTRDGFIVGIHSASNFTNTNNYFTSVPKNFMELLTNQEAQQWVSGWRLNADSVLWGGHKVFMVKPEEPFQPVKEATQL [L112M]	0.113	0.103	–	–	0.103	0.0849	0.0511	0.0918	–	–	–	0.102	0.0517	0.0632	–	0.0907	0.0584	–	0.0666	0.0908
MGESLFKGPRDYNPISSSICHLTNESDGHTTSLYGIGFGPFIITNKHLFRRNNGTLVVQSLHGVFKVKDTTTLQQHLVDGRDMIIIRMPKDFPPFPQKLKFREPQREERICLVHTNFQTKSMSSMVSDTSCTFPSGDGIFWKHWIQTKDGQCGSPLVSTRDGFIVGIHSASNFTNTNNYFTSVPKNFMELLTNQEAQQWVSGWRLNADSVLWGGHKVFMVKPEEPFQPVKEATQL [T114H]	0.0963	0.119	–	–	–	–	–	–	0.0854	–	–	0.104	–	–	–	0.0678	–	–	0.0699	–
